B1: GPR68, Q15743 (parent)
chain: MGNITADNSSMSCTIDHTIHQTLAPVVYVTVLVVGFPANCLSLYFGYLQIKARNELGVYLCNLTVADLFYICSLPFWLQYVLQHDNWSHGDLSCQVCGILLYENIYISVGFLCCISVDRYLAVAHPFRFHQFRTLKAAVGVSVVIWAKELLTSIYFLMHEEVIEDENQHRVCFEHYPIQAWQRAINYYRFLVGFLFPICLLLASYQGILRAVRRSHGTQKSRKDQIQRLVLSTVVIFLACFLPYHVLLLVRSVWEASCDFAKGVFNAYHFSLLLTSFNCVADPVLYCFVSETTHRDLARLRGACLAFLTCSRTGRAREAYPLGAPEASGKSGAQGEEPELLTKLHPAFQTPNSPGSGGFPTGRLA

Series [1] covers variants of B1. Kind of series: cAMP reporter score (Enrich2 score, wild type = 0); higher = more signal; HEK293T, FACS bins.
The variants in series [2] derive from B1. In words: surface expression score (Enrich2 score, wild type = 0); higher = more signal; HEK293T, FACS bins.

Scores with a large standard error are left out. Not listed are two conditions whose scores span a narrow range. Read del as a deletion of the residues named and ins as an insertion between two positions. For some of these results: How much ogerin was present is not stated here.

In the case of A347P, the cAMP reporter score was -0.102 in series [1] (pH 5.5); 0.225 in series [1] (pH 6); 0.052 in series [1] (pH 6, modulator: ogerin); -0.263 in series [1] (pH 6.5, modulator: ogerin). Further, in series [2], the surface expression score came out at 0.864.

As to A347L, the cAMP reporter score was -0.497 in series [1] (pH 5.5); -0.877 in series [1] (pH 6); -0.667 in series [1] (pH 6, modulator: ogerin); -0.691 in series [1] (pH 6.5, modulator: ogerin). In addition, the surface expression score in series [2] is -0.888.

A347E: the cAMP reporter score in series [1] (pH 5.5) turned out to be 0.194; in series [1] (pH 6, modulator: ogerin), 0.801; in series [1] (pH 6.5, modulator: ogerin), 1.96. Moreover, the surface expression score in series [2] was 0.92.

For A347del, the cAMP reporter score in series [1] (pH 5.5) was 0.035; in series [1] (pH 6), 1.18; in series [1] (pH 6, modulator: ogerin), -0.601; in series [1] (pH 6.5, modulator: ogerin), 0.041. Also, in series [2], the surface expression score is -0.077.

T342_K343insG: the cAMP reporter score in series [1] (pH 5.5) is -0.704; in series [1] (pH 6), 0.435; in series [1] (pH 6, modulator: ogerin), -0.207; in series [1] (pH 6.5, modulator: ogerin), -0.986. Also, in series [2], the surface expression score is -0.612.

In the case of P351_N352insGSG, the cAMP reporter score is -0.197 in series [1] (pH 5.5); 0.111 in series [1] (pH 6); -0.154 in series [1] (pH 6, modulator: ogerin); 0.518 in series [1] (pH 6.5, modulator: ogerin). In series [2], the surface expression score amounted to 0.7.

As for Q349M, the cAMP reporter score in series [1] (pH 5.5) came out at 1.65; in series [1] (pH 6, modulator: ogerin) it was 1.92. In addition, the surface expression score in series [2] was 2.48.

Q349S: the cAMP reporter score in series [1] (pH 5.5) was 1.26; in series [1] (pH 6) it was 0.923; in series [1] (pH 6, modulator: ogerin) it was 1.26; in series [1] (pH 6.5, modulator: ogerin), 1.23. Also, the surface expression score in series [2] worked out at 1.1.

For the variant Q349T, the cAMP reporter score in series [1] (pH 5.5) is 0.679; in series [1] (pH 6), -0.449; in series [1] (pH 6, modulator: ogerin) it was 0.667; in series [1] (pH 6.5, modulator: ogerin), -0.2. The surface expression score in series [2] is 0.119.

Turning to Q349R, the cAMP reporter score in series [1] (pH 5.5) is -0.873; in series [1] (pH 6) it was -0.429; in series [1] (pH 6, modulator: ogerin), -0.139; in series [1] (pH 6.5, modulator: ogerin), 0.542. Also, the surface expression score in series [2] is -0.515.

Q349V: the cAMP reporter score in series [1] (pH 5.5) turned out to be 0.696; in series [1] (pH 6) it was 1.21; in series [1] (pH 6, modulator: ogerin) it was 1.97; in series [1] (pH 6.5, modulator: ogerin), 1.17. For the same variant, the surface expression score in series [2] was 1.82.

Q349I: the cAMP reporter score in series [1] (pH 5.5) is 0.554; in series [1] (pH 6), 0.401; in series [1] (pH 6, modulator: ogerin) it was 0.527; in series [1] (pH 6.5, modulator: ogerin), -0.23. Besides, the surface expression score in series [2] was found to be 0.424.

In the case of Q349N, the cAMP reporter score in series [1] (pH 5.5) was 0.471; in series [1] (pH 6) it was 0.81; in series [1] (pH 6, modulator: ogerin), 0.01; in series [1] (pH 6.5, modulator: ogerin) it was -0.096. In series [2], the surface expression score is 0.102.

For Q349P, the cAMP reporter score in series [1] (pH 5.5) was -0.285; in series [1] (pH 6) it was -0.119; in series [1] (pH 6, modulator: ogerin) it was 0.582; in series [1] (pH 6.5, modulator: ogerin), -0.031. Also, the surface expression score in series [2] is 0.476.

Turning to Q349K, the cAMP reporter score is 1.16 in series [1] (pH 5.5); 0.596 in series [1] (pH 6); 1.05 in series [1] (pH 6, modulator: ogerin); 0.898 in series [1] (pH 6.5, modulator: ogerin). Also, the surface expression score in series [2] stood at 0.679.

Turning to Q349F, the cAMP reporter score in series [1] (pH 5.5) was 0.462; in series [1] (pH 6), -0.397; in series [1] (pH 6, modulator: ogerin), 0.404; in series [1] (pH 6.5, modulator: ogerin), -0.7. Also, the surface expression score in series [2] is -0.322.

Take Q349Y: the cAMP reporter score in series [1] (pH 5.5) is 0.058; in series [1] (pH 6, modulator: ogerin) it was 0.04; in series [1] (pH 6.5, modulator: ogerin), 0.109. Further, the surface expression score in series [2] is 0.655.

With Q349E, the cAMP reporter score was -0.307 in series [1] (pH 5.5) and 0.032 in series [1] (pH 6, modulator: ogerin). Further, the surface expression score in series [2] was -0.181.

Regarding Q349C, the cAMP reporter score in series [1] (pH 5.5) is 1; in series [1] (pH 6) it was -0.443; in series [1] (pH 6, modulator: ogerin), 1.13; in series [1] (pH 6.5, modulator: ogerin), 1.29.

On to Q349G, for which the cAMP reporter score was 1.49 in series [1] (pH 5.5); 1.3 in series [1] (pH 6, modulator: ogerin); 1.33 in series [1] (pH 6.5, modulator: ogerin). Further, in series [2], the surface expression score is 1.53.

For the variant Q349L, the cAMP reporter score in series [1] (pH 5.5) is 0.853; in series [1] (pH 6), 0.785; in series [1] (pH 6, modulator: ogerin), 0.597; in series [1] (pH 6.5, modulator: ogerin), -0.394. In series [2], the surface expression score was -0.055.

Regarding Q349D, the cAMP reporter score in series [1] (pH 5.5) was 1.12; in series [1] (pH 6), 0.006; in series [1] (pH 6, modulator: ogerin) it was 1.1; in series [1] (pH 6.5, modulator: ogerin), 0.518. Moreover, the surface expression score in series [2] worked out at 1.

With Q349A, the cAMP reporter score in series [1] (pH 5.5) is 1.08; in series [1] (pH 6) it was 0.148; in series [1] (pH 6, modulator: ogerin) it was 1.32; in series [1] (pH 6.5, modulator: ogerin), 0.645. Moreover, the surface expression score in series [2] stood at 1.3.

With Q349W, the cAMP reporter score in series [1] (pH 5.5) is -0.15; in series [1] (pH 6) it was -0.415; in series [1] (pH 6, modulator: ogerin), 0.005; in series [1] (pH 6.5, modulator: ogerin), -0.923. Also, in series [2], the surface expression score was -0.554.

As to Q349H, the cAMP reporter score in series [1] (pH 5.5) is 1.06; in series [1] (pH 6) it was 0.517; in series [1] (pH 6, modulator: ogerin) it was 0.456. The surface expression score in series [2] stood at 0.732.

As to K343_L344insGSG, the cAMP reporter score in series [1] (pH 5.5) worked out at 0.296; in series [1] (pH 6, modulator: ogerin), 0.564; in series [1] (pH 6.5, modulator: ogerin), 0.383. In series [2], the surface expression score is 0.527.

On to L344_H345del, for which the cAMP reporter score in series [1] (pH 5.5) turned out to be 0.545; in series [1] (pH 6), 1.78; in series [1] (pH 6, modulator: ogerin), 0.163; in series [1] (pH 6.5, modulator: ogerin) it was 0.806. Further, the surface expression score in series [2] was determined as 1.06.

Regarding L344_H345insGSG, the cAMP reporter score in series [1] (pH 5.5) was 1.01; in series [1] (pH 6, modulator: ogerin), 1.02; in series [1] (pH 6.5, modulator: ogerin), 1.16. Also, the surface expression score in series [2] turned out to be 0.862.

Turning to H345del, the cAMP reporter score was -0.49 in series [1] (pH 5.5); -0.729 in series [1] (pH 6); -1.11 in series [1] (pH 6, modulator: ogerin); -0.81 in series [1] (pH 6.5, modulator: ogerin). Also, the surface expression score in series [2] is -0.45.

Take K343del: the cAMP reporter score in series [1] (pH 5.5) is 1.63; in series [1] (pH 6), -0.533; in series [1] (pH 6, modulator: ogerin), -0.439. Moreover, the surface expression score in series [2] is -0.296.

In the case of L344_P346del, the cAMP reporter score worked out at 0.617 in series [1] (pH 5.5); 0.173 in series [1] (pH 6); 1.03 in series [1] (pH 6, modulator: ogerin); 1.11 in series [1] (pH 6.5, modulator: ogerin). Further, in series [2], the surface expression score was 0.527.

Regarding F348_Q349del, the cAMP reporter score came to 0.556 in series [1] (pH 5.5); 0.083 in series [1] (pH 6); 1.26 in series [1] (pH 6, modulator: ogerin); 1.37 in series [1] (pH 6.5, modulator: ogerin). Besides, in series [2], the surface expression score was 1.9.
